Reference: PubChem BioAssay AID686978 (National Center for Advancing Translational Sciences (NCATS), 2013)
In all, about 420,000 compounds went through this assay and about 64,000 (15%) were called active. This list was built around the results that the source calls inconclusive (neither active nor inactive); the mix of calls is not that of the screen. The call rests on the fitted dose curve; in most records, active means well fitted inhibition curve with a large enough effect; inconclusive means small, poorly fitted or top-dose-only effect; inactive means flat fitted curve, though single readings scatter. Potencies of inconclusive entries are left out as doubtful fits.

Test: qHTS for Inhibitors of human tyrosyl-DNA phosphodiesterase 1 (TDP1): qHTS in cells in absence of CPT; further: nearly all actives have a fitted effect of over 55% in size
Settings: DT40 Tdp1-/- hTDP1 cells, no CPT, ATP luminescence, 48 h; activity change, negative = growth inhibition: at 46.2 µM (top of the series) unless noted
Outline: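 Growth of hTDP1-complemented DT40 Tdp1-knockout cells is measured by ATP luminescence after at least 48 hr compound exposure at 37 °C, with DMSO substituting for the 20 nM CPT used in the parallel screen.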
On the % scale 0 is the no-effect control and ±100 the full control effect; potency means the concentration at half of the fitted maximal effect; tags describe the fitted curve by direction and shape.

Compound	Potency	activity change, negative = growth inhibition
CCOc1cccc(C(=O)c2ccc(O)c(O)c2O)c1	inconclusive [inhibitor, single point]	–
Nc1c(S(=O)(=O)O)cc(NC(=O)c2ccccc2)c2c1C(=O)c1ccccc1C2=O	inconclusive [inhibitor, partial curve]	–
O=C(CCCc1nc(-c2ccccc2)no1)Nc1cccnc1	inconclusive [inhibitor, single point]	–
CCCCn1nnnc1SCC(=O)N1CCOCC1	inactive	–
O=C(C[n+]1ccc(/C=C/c2c[nH]c3ccccc23)c2ccccc21)c1ccccc1	inconclusive [inhibitor, single point]	–
CCCNS(=O)(=O)c1ccc(NC(=O)Cc2cccs2)cc1	inactive	–
Cc1ccccc1-c1noc(CCC(=O)NCCc2ccccc2)n1	–	inconclusive: -31.6% [inhibitor]
CC1=CC(C)C(=O)N(C)C(C)=C1 (stereo unspecified)	inactive	–
Cc1nc(N)sc1-c1csc(Nc2cccc(O)c2)n1	inconclusive [inhibitor, single point]	–
CCOc1ccc2oc(C(=O)N3CCN(c4ccccc4OCC)CC3)c(C)c2c1	inconclusive [inhibitor, single point]	–
C/C(=N\Nc1ccc([N+](=O)[O-])cc1)c1ccc(-n2nncc2C(C)(C)C)cc1	inactive	–
Cc1ccccc1C(=O)N1CC/C(=N\OS(=O)(=O)O)c2ccc(Cl)cc21	inactive	–
CCc1cccc(C)c1NC(=O)c1cc(S(=O)(=O)N(Cc2ccc(C(=O)OC)cc2)Cc2ccc(OC)c(OC)c2)ccc1F	inconclusive [inhibitor, partial curve]	–
O=C(Nc1ccc(-c2csnn2)cc1)C1CC1	inconclusive [inhibitor, single point]	–
O=C(CCN(NC(=O)c1ccccc1)C1=NS(=O)(=O)c2ccccc21)NC1CCCCC1	inactive	–
COc1ccc(NC(=O)CN2C(=O)CC(c3ccc(C)c(C)c3)=Nc3ccccc32)cc1OC	inconclusive [inhibitor, single point]	–
Cc1cccc(-n2c(SCC(=O)Nc3nonc3C)nnc2-c2ccoc2C)c1	inconclusive [inhibitor, single point]	–
COc1ccc(Cc2nc3ccc(C(=O)NCc4ccccc4C)cc3o2)cc1	active: 8.2 µM	–
CCOC(=O)c1c(C)[nH]c(C)c1S(=O)(=O)N1CCN(C(=O)c2ccco2)CC1	inactive	–
COc1ccc(-c2nnc(SCC(=O)NNC(=O)c3ccc(C)cc3)o2)cc1	inactive	–
Cc1ccc(S(=O)(=O)N2CCCCC2)cc1C(=O)OC(C)C(=O)NC1CCCCC1C (stereo unspecified)	inconclusive [inhibitor, single point]	–
